Test results reported in the supplement of paper PMC10126150.
Values marked as one replicate rest on one cluster of the flow cell; about a third of the high ones do not repeat.

System: ATP
Assay: switch fluorescence ratio, 500 uM ATP over buffer (Cy3 cluster intensity, sum of 5 cycles each) (fold (ratio)); higher = stronger signal-on switching upon ATP binding; sequences stand for … in TCGTCGGCAGCGTCAGATGTGTATAAGAGACAGTTTTTTTTTTTTTTTTTTTTTTTTT…TC
Settings: aptamer strand: ATP DNA aptamer (quencher-CACCTGGGGGAGTATTGCGGAGGAAGG + anchor), 100 nM annealed; ATP concentration: 500 uM; one replicate
In short: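 Clusters carrying Cy3-labelled switching strands on a modified Illumina MiSeq flow-cell were annealed to 100 nM quencher-labelled ATP aptamer and imaged in selection buffer. They were imaged again after 15 min with 500 uM ATP at 22 °C, over five buffer/ATP cycles with NaOH stripping and re-annealing in between. For each cluster, the fluorescence ratio is the summed Cy3 intensity of the target cycles divided by that of the buffer cycles, averaged per switch-domain sequence. Clusters outside 100-1000 RFU were left out.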
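Note: ATP exposure 15 min at 22 °C before imaging.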

## CGGGCCTAAG
  switch fluorescence ratio: 0.97

## AATTGCGATA
  switch fluorescence ratio: 1.09

## CAAATGACTA
  switch fluorescence ratio: 1.04

## CTGGACTGAT
  switch fluorescence ratio: 1.06

## CATCACTCAA
  switch fluorescence ratio: 1.15

## ACGGAGCCGG
  switch fluorescence ratio: 1.1

## CCCATAT
  switch fluorescence ratio: 1.06

## AGAGTATATC
  switch fluorescence ratio: 1.02

## TGTCTAAAGC
  switch fluorescence ratio: 0.96

## ATACACATAT
  switch fluorescence ratio: 1.03

## TCGGTAGCTA
  switch fluorescence ratio: 1.11

## ATTGGTCTTG
  switch fluorescence ratio: 1.01

## TAGATAGGCA
  switch fluorescence ratio: 0.963

## GGTTGAAGCA
  switch fluorescence ratio: 0.987

## TTGTCGGGGC
  switch fluorescence ratio: 1

## GATAATGGA
  switch fluorescence ratio: 0.947

## TCTACTTATT
  switch fluorescence ratio: 1.03

## CAGAGCGTAA
  switch fluorescence ratio: 1.19

## GATAAAGACC
  switch fluorescence ratio: 1.01

## CGCTTCTGT
  switch fluorescence ratio: 1

## CGCTGACTTT
  switch fluorescence ratio: 1.03

## CCCTTTAAAG
  switch fluorescence ratio: 1.03

## GCGTCGATTT
  switch fluorescence ratio: 1.02

## GTTACTTCGG
  switch fluorescence ratio: 1.06

## CCGTGGACGG
  switch fluorescence ratio: 1.03

## ATTGCTCGG
  switch fluorescence ratio: 0.931

## AAGCCGGTGA
  switch fluorescence ratio: 1.24

## AAGAAAGAGT
  switch fluorescence ratio: 1.01

## TTGATAATGA
  switch fluorescence ratio: 0.972

## ATAGCAAGGT
  switch fluorescence ratio: 1.22

## GCTGGGGCCG
  switch fluorescence ratio: 0.988

## CGGTGCATTC
  switch fluorescence ratio: 2.29

## AGGCCGAG
  switch fluorescence ratio: 0.99

## TTACCAGGTC
  switch fluorescence ratio: 1.17

## CGTAAAAAAG
  switch fluorescence ratio: 1.03

## GATCAGGCG
  switch fluorescence ratio: 1

## AGGCTTCGAA
  switch fluorescence ratio: 0.983

## AGCCATGGGA
  switch fluorescence ratio: 0.997

## AGCATTAGAC
  switch fluorescence ratio: 1.52

## TGGGCGTGCA
  switch fluorescence ratio: 1.02

## AAGGCAGTAA
  switch fluorescence ratio: 1.01

## CTGAGGTTGT
  switch fluorescence ratio: 0.959

## GCCGTGGGTC
  switch fluorescence ratio: 0.971

## AGAATATCAC
  switch fluorescence ratio: 1.02

## ATGACAAGGA
  switch fluorescence ratio: 1.01

## AACCCCCTAT
  switch fluorescence ratio: 1.22

## TACGGGTGAG
  switch fluorescence ratio: 0.985

## TTGATTTAGT
  switch fluorescence ratio: 0.969

## AGCATTACTT
  switch fluorescence ratio: 2.26

## TCTAGAGACC
  switch fluorescence ratio: 0.993

## GCTCAATATT
  switch fluorescence ratio: 1.67

## AGACTCGGTG
  switch fluorescence ratio: 0.999

## TGCTCAGCT
  switch fluorescence ratio: 1.07

## TGCTTGCTT
  switch fluorescence ratio: 1.07

## CAACGCGTCG
  switch fluorescence ratio: 1.01

## ATATCATTGT
  switch fluorescence ratio: 0.961

## TAACATCGTG
  switch fluorescence ratio: 1

## GTTGTCCTGA
  switch fluorescence ratio: 1.03

## GCGTTTACAC
  switch fluorescence ratio: 0.983

## CCTCCATCAA
  switch fluorescence ratio: 1.53

## AGTAGGAGTG
  switch fluorescence ratio: 0.983

## ATACTTAAA
  switch fluorescence ratio: 1.04

## GTAGATTGGC
  switch fluorescence ratio: 1.08

## CCAGGAATTT
  switch fluorescence ratio: 1.01

## CGCAGAGGGC
  switch fluorescence ratio: 1.08

## GAGTATTGTA
  switch fluorescence ratio: 0.979

## TACGTCTTGA
  switch fluorescence ratio: 0.942

## CAGAAAAAAA
  switch fluorescence ratio: 1.14

## ATTGATGGG
  switch fluorescence ratio: 0.996

## ATTCCCTCCC
  switch fluorescence ratio: 0.996

## CCTGGTTGTA
  switch fluorescence ratio: 0.963

## ATTGGCGGGT
  switch fluorescence ratio: 1.01

## TTTGCAGGAA
  switch fluorescence ratio: 1.3

## TGTCGAAGTG
  switch fluorescence ratio: 0.983

## TTTGTCCTT
  switch fluorescence ratio: 1.02

## CATAGAGTTA
  switch fluorescence ratio: 0.998

## CCTCGAGATT
  switch fluorescence ratio: 1.36

## TATCACAGTG
  switch fluorescence ratio: 1.08

## AAGTCGGTGA
  switch fluorescence ratio: 0.967

## AAATCTTACC
  switch fluorescence ratio: 1.14

## TGCAGGAGAG
  switch fluorescence ratio: 1.03

## GCCGTCTTTA
  switch fluorescence ratio: 0.987

## GCGTTGAT
  switch fluorescence ratio: 0.981

## CCGGAATAGA
  switch fluorescence ratio: 1.34

## TGGTATGGCC
  switch fluorescence ratio: 1.02

## CGCGTTAAAC
  switch fluorescence ratio: 1.16

## CGGCTGCGTA
  switch fluorescence ratio: 1.01

## CGAGAGACGA
  switch fluorescence ratio: 1.05

## GCGAGCCTCA
  switch fluorescence ratio: 0.933

## GAAAAATGAA
  switch fluorescence ratio: 0.991

## CGTGGGTGGC
  switch fluorescence ratio: 1.01

## TTTTTTACAA
  switch fluorescence ratio: 1.05

## GAAATGTT
  switch fluorescence ratio: 1.02

## GAATCCGTAA
  switch fluorescence ratio: 3.7

## AAGTGAAGCC
  switch fluorescence ratio: 1.02

## AAGCCGCCCG
  switch fluorescence ratio: 1.06

## ATCAATATTC
  switch fluorescence ratio: 1.04

## AACATCGAAT
  switch fluorescence ratio: 1.04

## ATGCCGGAAG
  switch fluorescence ratio: 0.996

## CATCCGGGGA
  switch fluorescence ratio: 1.82

## TCAATAACGA
  switch fluorescence ratio: 1.02

## TAATTTACGC
  switch fluorescence ratio: 1.07

## TAAATCCAAA
  switch fluorescence ratio: 1

## TGAGGGGCGT
  switch fluorescence ratio: 0.954

## GCGCAAAGGT
  switch fluorescence ratio: 1.02

## GACCACTAAG
  switch fluorescence ratio: 1.06

## GCAAGCGAAC
  switch fluorescence ratio: 1.75

## CTGAGTGTAT
  switch fluorescence ratio: 1.01

## GTCGCTAACA
  switch fluorescence ratio: 0.968

## GTTCAGGG
  switch fluorescence ratio: 1.02

## AATTTCTGGA
  switch fluorescence ratio: 0.994

## ATGTGGATGT
  switch fluorescence ratio: 0.991

## TTGTTTTAGC
  switch fluorescence ratio: 0.98

## TGGATCAGTA
  switch fluorescence ratio: 1

## TCTTATTTGC
  switch fluorescence ratio: 0.99

## GGCCCCCTTG
  switch fluorescence ratio: 1.15

## GGTATCGCTC
  switch fluorescence ratio: 0.996

## AGAAAATTGA
  switch fluorescence ratio: 0.971

## GGCCTTGTCA
  switch fluorescence ratio: 1.03

## TGATTTGATG
  switch fluorescence ratio: 0.979

## ACGTCTAAGG
  switch fluorescence ratio: 1

## ACTTACATGT
  switch fluorescence ratio: 1.22

## GAACGCAGAG
  switch fluorescence ratio: 1.55

## ACTATCACAT
  switch fluorescence ratio: 1.21

## CGCACAGCGA
  switch fluorescence ratio: 1.04

## ATCATCGGCG
  switch fluorescence ratio: 1.04

## AAAGCGACCC
  switch fluorescence ratio: 1.16

## GGTGGTTCCT
  switch fluorescence ratio: 1.03

## TCTTACTTTC
  switch fluorescence ratio: 1.04

## CGGGCATGAA
  switch fluorescence ratio: 1

## TTGGACTTAT
  switch fluorescence ratio: 1.01

## AATGCGTTGG
  switch fluorescence ratio: 0.965

## ATGATGGCAG
  switch fluorescence ratio: 1.05

## GACAATGCGC
  switch fluorescence ratio: 1.15

## AGTTAGTTCA
  switch fluorescence ratio: 1.04

## GGTTTACCGT
  switch fluorescence ratio: 0.958

## CTCAATTTGG
  switch fluorescence ratio: 0.963

## AACGTGTGAA
  switch fluorescence ratio: 0.973

## CGTGCTGCGC
  switch fluorescence ratio: 1.03

## GGGGTCCGTT
  switch fluorescence ratio: 1

## TAAGCAAGGT
  switch fluorescence ratio: 1.61

## AAAGTATAGT
  switch fluorescence ratio: 1.11

## AGAATCTTGT
  switch fluorescence ratio: 1.01

## TTTTCAGTCT
  switch fluorescence ratio: 1.04

## GCAGCAGTTG
  switch fluorescence ratio: 1.09

## TCGGCTGGAT
  switch fluorescence ratio: 1.06

## CAGCGTCAG
  switch fluorescence ratio: 1

## TCCCCCTTAC
  switch fluorescence ratio: 3.08

## TCTAGCTCGG
  switch fluorescence ratio: 0.989

## AAATTGGGGC
  switch fluorescence ratio: 1.01

## GTAGGTAAAC
  switch fluorescence ratio: 1.01

## CCTGGCCGTG
  switch fluorescence ratio: 1.06

## CCAAGACCTG
  switch fluorescence ratio: 1

## TCCTAATCGG
  switch fluorescence ratio: 1.02

## TATGTAGCGG
  switch fluorescence ratio: 1.08

## ACGGTGGATG
  switch fluorescence ratio: 1.04

## TCGGTAATCT
  switch fluorescence ratio: 1.04

## CTGAGTGTTT
  switch fluorescence ratio: 0.963

## GTTGCGAAGC
  switch fluorescence ratio: 1.06

## TGACGACATG
  switch fluorescence ratio: 1.04

## ACCCCTTTCG
  switch fluorescence ratio: 1.07

## GTGTCAGTTT
  switch fluorescence ratio: 1.01

## AGGTGGGCTT
  switch fluorescence ratio: 0.995

## TGGGTAGCTA
  switch fluorescence ratio: 1.04

## AATTTGAAAA
  switch fluorescence ratio: 1.02

## CTAGCAGTAT
  switch fluorescence ratio: 1.31

## TGCTCAATTG
  switch fluorescence ratio: 1

## CTACATCGGA
  switch fluorescence ratio: 0.968

## TGCTTAACGC
  switch fluorescence ratio: 1.07

## GAGGGAGC
  switch fluorescence ratio: 0.99

## TAAGACACCA
  switch fluorescence ratio: 1.07

## AACCACGAGG
  switch fluorescence ratio: 1.04

## GCACTTTCTA
  switch fluorescence ratio: 1.02

## CATCCGTCAG
  switch fluorescence ratio: 3.52

## CCAGTAGTTC
  switch fluorescence ratio: 1.05

## TGATTGTGTT
  switch fluorescence ratio: 0.965

## AAATAGCACT
  switch fluorescence ratio: 1.03

## GAGAAAAGCG
  switch fluorescence ratio: 1.02

## TCGGGTTAAT
  switch fluorescence ratio: 1.01

## ATTATGCGAT
  switch fluorescence ratio: 0.954

## TAGGCGAAGT
  switch fluorescence ratio: 0.944

## TCCACTTAGC
  switch fluorescence ratio: 0.977

## TCTTAACCGA
  switch fluorescence ratio: 1.03

## TGGTGTGCTA
  switch fluorescence ratio: 0.948

## TGTAGGCCGG
  switch fluorescence ratio: 0.992

## TGATTGTAAC
  switch fluorescence ratio: 0.993

## CGCGTCCGAT
  switch fluorescence ratio: 1.02

## GACACTCAC
  switch fluorescence ratio: 1.35

## GGCGCCTGTT
  switch fluorescence ratio: 0.971

## AAACCGATAA
  switch fluorescence ratio: 1.1

## GCTACTCGAC
  switch fluorescence ratio: 1.39

## GGCACGTGAG
  switch fluorescence ratio: 1.04

## TTTGGTCCAC
  switch fluorescence ratio: 0.996

## TATGTCTATC
  switch fluorescence ratio: 1.02

## TCTGTGTTCC
  switch fluorescence ratio: 1.06

## GGGGTAAGCA
  switch fluorescence ratio: 0.986

## ATTTTCAATA
  switch fluorescence ratio: 0.992

## AAGATACATG
  switch fluorescence ratio: 1.03

## GATTATTCAA
  switch fluorescence ratio: 0.964

## CGCCCAAGAA
  switch fluorescence ratio: 1.33

## TTTCTGTCTT
  switch fluorescence ratio: 0.92
